Where “and” joins values, the source holds several entries; their conditions need not be identical. Equal entries are not always repeated. The whole screen tested about 340,000 compounds, of which about 6,900 (2%) were called active. Cut-off read from the data, not from the text of the source: active = inhibition above about 30%; inactive = below that, where a call was filed. The list shows a part of the results, in another mix than the full data. Where no call is shown, the source filed none.

Sequence of UniProt P14416 (P14416 whole entry, looked up): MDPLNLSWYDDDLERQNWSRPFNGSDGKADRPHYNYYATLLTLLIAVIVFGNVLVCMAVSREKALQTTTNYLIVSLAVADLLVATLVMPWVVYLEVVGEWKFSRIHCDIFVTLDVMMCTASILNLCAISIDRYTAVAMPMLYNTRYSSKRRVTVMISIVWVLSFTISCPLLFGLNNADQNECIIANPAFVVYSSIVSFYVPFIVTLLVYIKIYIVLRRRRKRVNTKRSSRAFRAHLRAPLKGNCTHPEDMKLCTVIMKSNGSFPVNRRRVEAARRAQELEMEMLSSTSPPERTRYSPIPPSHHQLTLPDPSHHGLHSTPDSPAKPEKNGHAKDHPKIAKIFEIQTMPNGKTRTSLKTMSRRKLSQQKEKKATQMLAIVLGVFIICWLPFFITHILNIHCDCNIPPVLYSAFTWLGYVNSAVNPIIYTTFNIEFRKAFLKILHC

This experiment concerns the target D(2) dopamine receptor (Homo sapiens) (UniProt P14416). Kind of experiment: HTS Assay for Allosteric Antagonists of the Human D2 Dopamine Receptor: Primary Screen for Antagonists. Note: 0% is about no effect. To be noted: HEK293 TREx D2 cells, calcium flux, dopamine EC80; at 10 µM; stronger effect = higher value. The gist of the method:
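Compounds are added to dye-loaded, induced HEK293 T-REx cells coupled to calcium release via D2; after a 3 min kinetic read an EC80 dopamine stimulus is given and fluorescence is recorded for 3 more min.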
In general terms: Calcium assays in cells follow changes in intracellular calcium, usually with a dye or a luminescent sensor.
In the case of `CCN(CC)c1ccc(NC(=O)C2CCN(c3nnc(-n4cccc4)s3)CC2)c(C)c1`, the inhibition (in general, the drop in the measured response relative to a control, in per cent) was found to be 2.29%.
In the case of `CC1=C(c2ccc(Cl)cc2)S(=O)(=O)NC1=NCCCN1CCN(c2cc(C)ccc2C)CC1`, the inhibition worked out at 13.3%.
The value for `CCC(CC)C(=O)OCc1cc(=O)n2nc(C3CC3)sc2n1` was -10.2%; that for `Cn1cc(-c2cc3n(n2)CCC(=O)N3CCCC(=O)NCc2ccc(Cl)cc2)c2ccccc21` was -14.2%; that for `O=C(CCCn1c(=O)c2cccn2c2ccccc21)Nc1cc(C(F)(F)F)ccc1Cl` was -3.37%.
In the case of `CC1C(=O)Nc2ccc(S(=O)(=O)N3CCCCC3)cc2NC1=O` (centres undefined), the inhibition amounted to 4%.
Then `COc1ccc(Cn2c(CCC(=O)Nc3cc(OC)c(OC)c(OC)c3)nc3cccnc32)cc1`, with -1.12%; and `O=C(CSc1nccn1Cc1ccccc1)NCc1ccco1`, with -10.5%; and `CCOC(=O)c1cc(-c2ccc(OC)cc2)n(CCC(=O)Nc2ccccc2OC)c1C`, with -24.8%.
On to `CCOc1ccccc1NC(=O)CN1C(=O)COc2ccc(S(=O)(=O)N3CCOCC3)cc21`, for which the inhibition is 4.03% and active: 36.3%.
The value for `CCOC(=O)c1ccc(N2C(=O)c3[nH]nc(-c4ccccc4)c3C2c2ccc(CC)cc2)cc1` (centres undefined) was 4.84%.
Then `CCOc1ccccc1C(=O)N(Cc1ccco1)Cc1ccco1`, with 19.9%.
The value for `O=C(Cn1c(=O)n(Cc2nc(-c3ccccc3)no2)c(=O)c2ccccc21)Nc1cccc(C(F)(F)F)c1` was 13.8%.
For `O=C(c1ccc2c(c1)N(Cc1ccccc1F)C(=O)c1ccccc1S2(=O)=O)N1CCC(Cc2ccccc2)CC1`, the inhibition worked out at 22.5%.
The value for `COc1ccc(-c2cc(C(=O)Nc3c(C(=O)c4ccc(C)cc4)oc4ccccc34)no2)cc1` was -9.82%; that for `COc1ccccc1CNC(=O)C1CCCN(S(=O)(=O)c2ccc3c(c2)oc(=O)n3C)C1` (centres undefined) was 11.5%.
Take `CCOC(=O)Cn1c(=O)n(CC2CCCO2)c2nc(-c3ccccc3OC)nc(C(N)=O)c21` (centres undefined): the inhibition is -4.82%.
Then `O=c1c2sc3ccccc3c2n(Cc2cccc(F)c2)c(=O)n1Cc1ccccc1`, with -3.25%; and `O=C(NC1CC(=O)N(c2ccc(F)cc2)C1)c1ccc(S(=O)(=O)N2CCCCC2)cc1` (centres undefined), with -2.45%.
Then `O=C(NCc1cccs1)c1ccc2c(=O)n3nc(Nc4ccccc4)sc3nc2c1`, with 13.3%; and `Cc1ccc2c(c1Br)C(O)(CC(=O)c1ccc(F)cc1)C(=O)N2` (centres undefined), with -3.74%.
Then `COC(=O)c1ccc(OCC2c3cc(OC)c(OC)cc3CCN2C(=O)Cc2ccc(OC)cc2)cc1` (centres undefined), with 7%; and `COc1c(Cl)cccc1-c1cn2ccc(C)cc2n1`, with active: 34.8%.
As to `CCOc1ccc(N2CC(NC(=O)C(=O)c3c[nH]c4ccccc34)CC2=O)cc1` (centres undefined), the inhibition is -6.92%.
Then `COc1ccc(C2NC(=O)N(C)C3=C2C(=O)N(c2cccc(Cl)c2)C3)cc1` (centres undefined), with 19%; and `CCc1ccc(Sc2cc(C(=O)NCc3cccc(OC)c3)c3ccccc3n2)cc1`, with -4.47%.
With `Cc1cccc(NC(=O)CSc2cn(CC(=O)N3CCCCCC3)c3ccccc23)c1`, the inhibition was -9.04%.
Take `Cc1cc(OC(C)C(=O)Nc2c(C(=O)c3ccc(F)cc3)oc3ccccc23)ccc1Cl` (centres undefined): the inhibition is -10.5%.
With `CCc1ccc(Sc2cc(C(=O)NCc3ccccc3OC)c3ccccc3n2)cc1`, the inhibition came to 4.6%.
Turning to `CN(C)S(=O)(=O)N(CC(=O)NCCSCc1ccccc1)c1ccccc1`, the inhibition came to 5.26%.
On to `CCCCCn1c(=O)[nH]c2cc(C(=O)Nc3cc(C)cc(C)c3)ccc2c1=O`, for which the inhibition is -3.57%.
For the compound `Cc1cccc(N2C(=O)N(CC(=O)C(C)(C)C)c3ccccc3S2(=O)=O)c1C`, the inhibition is 5.08%.
Take `COc1ccc(Cl)cc1NC(=O)c1cc(S(=O)(=O)NC2CCCCCC2)ccc1F`: the inhibition came out at 4.84%.
The value for `Cc1ccc(C)c(NC(=O)CN2CCCN(Cc3cccc(Cl)c3)S2(=O)=O)c1` was 14.9%.
Then `Cc1ccc(OCc2nc(-c3ccc(C(=O)N4CCN(c5ccccc5F)CC4)cc3)oc2C)cc1`, with 2.72%; and `Cn1nc(C(=O)NCc2ccc(Cl)cc2)c2c1-c1ccccc1S(=O)(=O)C2`, with 7.17%.
The value for `Cc1cccc(-n2ncc(C(=O)N3CCN(c4ccc(Cl)cc4)CC3)c2C2CCN(C(=O)OC(C)(C)C)CC2)c1` was -15.6%; that for `COc1ccc(CNC(=O)Cn2c(SCC(=O)Nc3ccc(OC)cc3)nc3ccccc32)cc1` was -0.277%.
As to `Cc1ccc(NC(=O)c2ccc(-c3cccc(Cl)c3C)o2)cc1`, the inhibition is -9.05%.
For `Cc1nc2c(-c3ccccc3)cnn2c(N2CCOCC2)c1C`, the inhibition was active: 30.8%.
Then `COc1ccc(OC)c(CNC(=O)c2cc3c(-c4ccc(OC)c(OC)c4)nn(C)c3s2)c1`, with -5.05%; and `CCc1cccc(NC(=O)CN2C(=O)COc3ccc(S(=O)(=O)Nc4ccccc4)cc32)c1`, with -5.57%.
Then `Cc1nnc(SCc2cnc(-c3ccc(C(C)C)cc3)s2)n1C`, with active: 66.5%; and `Cc1ccc(CSc2nc3ccc(NC(=O)COc4ccccc4)cc3s2)cc1`, with 4.29%.
Then `CCOC(=O)c1ccc(N2C(=O)c3[nH]nc(-c4ccc(C)cc4)c3C2c2cccc(F)c2)cc1` (centres undefined), with -5.76%.
On to `CCc1ccc(C(=O)c2cn(CC(=O)Nc3cccc(OC)c3)c3ccc(OC)cc3c2=O)cc1`, for which the inhibition is -6.1%.
For `COc1ccccc1N1CCN(c2ncnc3c2cnn3-c2cc(Cl)ccc2C)CC1`, the inhibition amounted to 0.618%.
Take `COc1ccc(OCC(=O)NCc2ccc3c(c2)CCN3C(=O)c2ccccc2)cc1`: the inhibition came out at 4.02%.
The value for `O=C(NCCc1ccccc1)c1cnc2sc(N3CCCCCC3)nn2c1=O` was -3.61%.
The value for `O=C(c1cc2ccccc2oc1=O)N1CCN(c2ccc(Cl)cc2)CC1` was -4%; that for `Cc1cc2oc(C(=O)Nc3ccc(S(N)(=O)=O)cc3)cc(=O)c2cc1C` was 8.98%.
The value for `Cc1ccc(C(=O)N2c3ccc(C)cc3C(C)(c3ccccc3)CC2(C)C)cc1` (centres undefined) was 9.3%; that for `Cc1cc(C(F)(F)F)n2nc(-c3ccc(Br)cc3)cc2n1` was 9.08%; that for `CCCCOc1ccc(-c2nn(-c3ccccc3)cc2C2NC(=O)NC(C)=C2C(=O)OCC)cc1` (centres undefined) was 8.04%.
In the case of `CC(NC(=O)c1ccc2c(c1)CCN2S(C)(=O)=O)c1ccccc1` (centres undefined), the inhibition was -1.87%.
As to `Cc1c(Cl)cccc1NC(=O)c1cccc(NC(=O)N2CCSc3ncccc32)c1`, the inhibition stood at 7.86%.
For `CCOc1ccc(NC(=O)CSC2=Nc3ccccc3C3=NC(CCC(=O)NCc4ccccc4)C(=O)N23)cc1` (centres undefined), the inhibition was -27.3%.
For `NC(=O)c1cc[n+](Cc2ccc([N+](=O)[O-])cc2)cc1`, the inhibition was active: 39.2%.
For `CCOC(=O)CC(NC(=O)CCc1c(C)nc2c(c(C)nn2-c2ccc(C)c(C)c2)c1C)c1ccc(C)cc1` (centres undefined), the inhibition turned out to be 3.91%.

For the origin of these results see PubChem BioAssay AID485344 (National Center for Advancing Translational Sciences (NCATS), 2010).
